Assay results taken from the RNAGym collection of RNA variant scans (doi:10.7554/elife.90254).
The source gives no read counts; variants with many changes may rest on few reads.

B1: OR4K15 (parent)
chain: GUUAACGGUCAUAGGCCAUGGAAACUAGGAGCACCAUUUCGCUGCCAGUGAAGAAAUGAACAAAGAAAAUCUGGGCCAGGCAGGCAUCAAAAGAAAUAGUCUUGCGCUCAACCAGAAAGUCUGUAAUCAUUUUAAGGGUA

Variants of: B1
Assay: self-cleavage, relative activity (ratio to wild type); higher = more cleavage; in vitro, sequencing; the parent is a self-cleaving ribozyme

Variant | self-cleavage
G7A U57A A64G U103C | 0.79
C81A C85G A89G | 0.19
A11U A24G A30G A68G A82G | 0.93
C17U U70A U87C | 0.54
A5G A86U C107G | 0.17
A33G G44U U131C | 0.39
A13G U19C A94U U130C | 1.1
C34U A47G A60G A86U | 0.81
U120C U122G U131C | 1.96
A11G A27U U97C | 0.97
C46U A62G A94G A129G | 1.57
G75U A94G A95U A96G A140G | 0.06
C34U A116G U132A | 0.67
U9A U49A A111G | 0.03
U9A A11U A22C U108A | 0.05
U49C A55G A59G A116G | 0.17
G8U U49C A67G U70A A89G | 2.03
A4U A51G A60G A90G U130C | 1.47
U49C A51U G83A U133A | 1.27
C85A A95G A98G | 1.12
U19C A33G G50A A69U | 1.04

Variant | self-cleavage
U43C A51G A62G | 1.44
U19C A56G U57C | 0.64
A33G A60G A114G U130C | 0.11
U39C U87C U139C | 1.67
A66U A96G A110G U122A | 0.16
A54G A56G U103C U139C | 0.14
G8U A67G A96G | 1.88
U26C A56G A59U | 0.94
A23G A94G U108A A135G | 0.05
A4G U39C U124C | 1.02
U43C A60G G80U A110G | 0.02
U38C A54G U131C | 0.46
A60U A63G A64U A91G A95G | 2.13
A59G U120A U132C | 1.2
A82G U120C U131C | 0.16
A11C A55U U72C A110G U122C | 0.05
A67G A78U A86U A95U | 0.16
U37C C112A U132C A135G | 0.02
U9C A60C U130C | 1.91
A5G A55G U70C A78U A86G | 0.21
A30G U38C U43C U49C U127C | 0.84

Variant | self-cleavage
A23G U70C A116U | 0.19
A36U A52G A54G | 1.54
U39C U57C A67G A135G | 1.87
G14U A36G A66G | 1.07
U39C A78U A90G A91G C128U | 0.27
A24G A86G A91G A129G | 0.18
U43A A86U A92C U103A | 1.66
A13G A33U U43C A62G A135U | 0.65
A89G U103C A111G | 0.02
A5G A52G U72A | 0.2
A36G A54G A116G U122A | 0.35
A52G U100A A126U A140G | 0.32
A18G U43C A62G U100A | 0.64
A24G A118U G123A | 1.99
A18G G58A A114U | 0.02
A47U A78C U108A | 0.01
A11U C45U A64G A96G | 1.17
A36C G53A A63C U70C A91G | 1.07
G14A A60G A68G U102C | 0.99
A18G A82U A140U | 0.16
U103C A126U U132C | 0.8

Variant | self-cleavage
A60G A116G U127C | 0.18
U43C A90G A114U | 0.04
A5G U19C U43A A51G U87C A90G | 0.27
U38C A52G A60G U103C C109G | 0.05
A11G A24G A86U U97C U139C | 0.97
U100C U102C A110G | 0.18
A22G A96G A114U | 0.08
A86G U102A U127A | 0.45
A52G A60U A82U | 0.26
U2A A33G A54G | 1.2
U38A C88U A129G | 1.87
A60U U72C A129U U139C | 0.1
A30G A118G U127C A134G | 0.52
A5C U38A U39C U122C A126G | 0.59
A68G A82C A117G U120C | 0.04
A22G C25A U39C A110G | 0.14
U49A U102C A134U | 2.79
A11G A51G U70C A86G U87C C121U | 0.74
U39C G41A U70C A78G | 0.45
U49C A55G A68G U87C A94G A95G A118G | 0.49
